Experimental data as given in PubChem BioAssay AID624417 (National Center for Advancing Translational Sciences (NCATS), 2012).
The campaign covered roughly 410,000 compounds. About 6,400 (1.6%) were called active. The inconclusive results got no clear call from the source; some entries with a clear call stand among them for comparison. Calls follow the shape of the dose curve; as a rule, active = well fitted inhibition curve with a large enough effect; inconclusive = small, poorly fitted or top-dose-only effect; inactive = no such curve, though single readings can be large or run the other way. A potency beside an inconclusive call is a rough fit, not a confirmed value.

The molecules below were run against Glucagon-like peptide 1 receptor (Homo sapiens) (UniProt P43220) (assay: qHTS of GLP-1 Receptor Inverse Agonists (Inhibition Mode)). Details: HEK293 GLP-1R CRE-luciferase, luminescence, 24 h, GLP-1R form is constitutively active; series mostly up to 38.3 µM.
UniProt P43220, sequence (P43220 whole entry, looked up): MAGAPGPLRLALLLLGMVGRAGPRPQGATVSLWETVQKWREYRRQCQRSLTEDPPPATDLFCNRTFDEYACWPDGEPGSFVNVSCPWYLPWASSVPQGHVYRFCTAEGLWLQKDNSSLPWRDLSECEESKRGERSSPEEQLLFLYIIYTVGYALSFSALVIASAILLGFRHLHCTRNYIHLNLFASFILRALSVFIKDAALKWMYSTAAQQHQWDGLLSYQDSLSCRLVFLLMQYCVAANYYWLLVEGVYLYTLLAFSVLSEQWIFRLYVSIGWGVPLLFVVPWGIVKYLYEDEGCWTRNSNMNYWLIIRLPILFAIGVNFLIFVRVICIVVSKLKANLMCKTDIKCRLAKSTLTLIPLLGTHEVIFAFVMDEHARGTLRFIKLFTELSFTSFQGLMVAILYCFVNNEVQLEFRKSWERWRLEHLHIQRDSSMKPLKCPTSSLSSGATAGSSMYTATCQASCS
Procedure, shortened: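 Seeding at 200 cells/uL, 12 h culture, 24 hr compound treatment, then luciferase reagent and a luminescence read; cells are HEK293 stably expressing a constitutively active GLP-1R plus cAMP-responsive luciferase.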
Also: nearly all actives have a fitted effect of over 55% in size.
Potency is read from the fitted curve at half-maximal effect; tags tell the direction and shape of the fitted curve.

Potency, active:
O=C(C1=COCCO1)N1CCN(C(c2ccccc2)c2ccccc2)CC1 10 µM, CCc1ccccc1Nc1nc(-c2cccnc2)cs1 11.2 µM

Potency, inconclusive:
COC(=O)c1ccc2c(=O)n(CCCCCC(=O)N3CCN(c4cccc(C)c4C)CC3)c(=O)[nH]c2c1 22.4 µM [inhibitor, single point], Cn1nc(-c2ccccc2F)c2cc(C(=O)N3CCN(c4ccccc4F)CC3)sc21 11.2 µM [inhibitor, single point], O=C1C(=C(c2ccccc2)N2CCOCC2)Cc2ccccc21 28.2 µM [inhibitor, single point], O=C1COc2ccc(S(=O)(=O)Nc3ccc(OC(F)(F)F)cc3)cc2N1 28.2 µM [inhibitor, single point], COc1ccc(CNS(=O)(=O)c2ccc3c(c2)N(C)CCO3)cc1 12.6 µM [inhibitor, single point], Cc1ccc(NC(=O)C(C)Sc2n[nH]c(CNc3ccccc3)n2)cc1 (configuration not stated) 7.94 µM [inhibitor, partial curve], Cc1ccc(C(=O)N2CCN(c3ccc(NC(=O)Cc4ccccc4)cc3)CC2)cc1 10 µM [inhibitor, single point], Cc1cc(C)c(NC(=O)CNC(=O)c2cc(C3CC3)nn2-c2ccccc2)c(C)c1 11.2 µM [inhibitor, partial curve, poor fit], COC(=O)c1c(NC(=O)c2ccccc2)sc(C(N)=O)c1C 0.794 µM [inhibitor, full curve, poor fit], CC(NC(=O)C(C)(C)C)C(c1cccs1)N1CCN(Cc2ccccc2)CC1 (configuration not stated) 10 µM [inhibitor, partial curve, poor fit], Cc1ccccc1OC1CCN(C(=O)c2cc(COc3ccccc3)on2)CC1 10 µM [inhibitor, partial curve, poor fit], Cc1ccc(S(=O)(=O)N2CCCc3cc(NC(=O)c4cccc(Cl)c4)ccc32)cc1 28.2 µM [inhibitor, single point], COc1ccccc1CC(=O)Nc1cc2oc3ccccc3c2cc1OC 28.2 µM [inhibitor, single point], CCCC(c1nnnn1CS(=O)(=O)c1ccc(C)cc1)N1CCN(c2ccccc2)CC1 (configuration not stated) 8.91 µM [inhibitor, partial curve, poor fit], O=C(/C=C\c1ccc2c(c1)OCO2)NC1(C(=O)Nc2ccc3c(c2)OCO3)CCCCC1 31.6 µM [inhibitor, single point], CCOC(=O)/C(=C/c1c(C)n(C)c2ccc([N+](=O)[O-])cc12)C(C)=O 1.26 µM [inhibitor, full curve, poor fit], Cc1c(C(=O)OCC(=O)N(C)Cc2ccc(Cl)cc2)oc2ccccc12 10 µM [inhibitor, partial curve], Cc1ccc(OCC(=O)N2CCN(C(=O)CCC3CCCC3)CC2)cc1 7.94 µM [inhibitor, partial curve, poor fit], CN(C)CCn1c2c(c(SCC(=O)Nc3cccc4ccccc34)nc1=O)CCCC2 10 µM [inhibitor, partial curve], CC(C)c1ccc(NC(=O)C2Cc3c(-c4ccc5c(c4)OCO5)ccnc3O2)cc1 (configuration not stated) 7.94 µM [inhibitor, partial curve, poor fit], Cc1ccc(S(=O)(=O)N/N=C/c2c[nH]c3ccccc23)cc1 28.2 µM [inhibitor, single point], COc1ccc2oc(C(=O)N(C)CCOc3ccc(Cl)cc3)c(C)c2c1 11.2 µM [inhibitor, single point], COc1cc2c(cc1NC(=O)COC(=O)[C@@H](NS(=O)(=O)c1ccccc1)C(C)C)oc1ccccc12 11.2 µM [inhibitor, partial curve, poor fit], O=C(Cn1cc(C(=O)c2cccs2)c2ccccc21)NC1CCCCC1 10 µM [inhibitor, single point], CCOC(=O)c1sc(NC(=O)c2ccc(S(=O)(=O)N(C)C)cc2)cc1C 7.08 µM [inhibitor, partial curve], COC(=O)c1cc2ccsc2n1Cc1cccc(F)c1 28.2 µM [inhibitor, single point], N/C(=N\OC(=O)c1ccccc1)c1ccccn1 6.31 µM [inhibitor, partial curve, poor fit], COc1ccc(-n2c(C)cc(C(=O)CN3C(=O)NC4(CCc5ccccc54)C3=O)c2C)cc1 (configuration not stated) 28.2 µM [inhibitor, single point], Nc1ccc2c(c1)C(=O)C(=O)c1ccccc1-2 3.16 µM [inhibitor, full curve, poor fit], CCN(CC)c1ccc(S(=O)(=O)N2CCOCC2)cc1NC(=O)CSC(=S)N1CCCC1 10 µM [inhibitor, partial curve, poor fit], Cc1cc(-c2nn(-c3ccccc3F)cc2CN2CCC(O)CC2)c(C)s1 11.2 µM [inhibitor, partial curve, poor fit], CC(C)Cc1cc(C(=O)Nc2cccc(O)c2)no1 28.2 µM [inhibitor, single point], CCN(CC)S(=O)(=O)c1cc(NC(=O)C(C)N(C)CC(=O)Nc2c(C)cccc2C)ccc1C (configuration not stated) 28.2 µM [inhibitor, single point], O=C(Nc1ccc(Cl)c(Cl)c1)N1CC=CCC1 28.2 µM [inhibitor, single point], CC1(C)CC(NC(=O)COc2ccc(Br)cc2Cl)CC(C)(C)N1 7.08 µM [inhibitor, partial curve, poor fit], CCCCCCN1CCN(C2CN(Cc3ccc([N+](=O)[O-])cc3)S(=O)(=O)C2)CC1 (configuration not stated) 10 µM [inhibitor, partial curve], O=C(C[C@H]1C(=O)N(c2ccc(Br)cc2)C[C@@H]1Cc1ccccc1)Nc1ccccc1 12.6 µM [inhibitor, single point], COc1ccccc1-c1nnc(SCC(=O)c2ccc(C3CCCCC3)cc2)n1Cc1ccco1 8.91 µM [inhibitor, partial curve, poor fit], O=S(=O)(Nc1nc2ccccc2nc1NCC1CCCO1)c1cc(Cl)ccc1Cl (configuration not stated) 11.2 µM [inhibitor, single point], CC(=O)c1ccc(NC(=O)C(C)OC(=O)C2CCN(c3ccc(C(F)(F)F)cn3)CC2)cc1 (configuration not stated) 7.08 µM [inhibitor, partial curve, poor fit], Cc1c(NC(=O)c2cnn3c2NC(c2ccc(Br)cc2)CC3C(F)(F)F)c(=O)n(-c2ccccc2)n1C (configuration not stated) 11.2 µM [inhibitor, single point], COCn1cnc(-c2ccccc2)c1-c1ccccc1 12.6 µM [inhibitor, partial curve, poor fit], OCC1(Cc2ccccc2C(F)(F)F)CCN(Cc2ccc3c(c2)CCO3)CC1 3.55 µM [inhibitor, partial curve, poor fit], COc1cc(C(C(=O)NC2CCCC2)N(CCO)C(=O)Cn2nnc(-c3ccc(C)o3)n2)ccc1O (configuration not stated) 28.2 µM [inhibitor, single point], O=C1CCN(Cc2ccccc2)CCN1[C@H](COc1ccccc1)c1ccccc1 15.8 µM [inhibitor, partial curve, poor fit], CCCOc1cccc(C(=O)NC(=S)Nc2cccc(C(F)(F)F)c2)c1 22.4 µM [inhibitor, single point], Cc1ccc(Sc2cc(C)nc(-c3ccccn3)n2)cc1 2.24 µM [inhibitor, full curve, poor fit], CN(CC(=O)NCc1ccccc1F)S(=O)(=O)c1ccc(Cl)cc1 11.2 µM [inhibitor, partial curve, poor fit], CC(C)c1ccc(S(=O)(=O)N2CCN(C(=O)CCc3nc4ccccc4c(=O)[nH]3)CC2)cc1 28.2 µM [inhibitor, single point]

Potency, inactive:
O=C(NCCc1ccccc1)C(=O)c1c(-c2ccccc2)cc2ccccn12, C/C(=N\NC(=O)c1csc(C)c1C)c1ccc(C)s1, NC(N)=NS(=O)(=O)c1ccc(NC(=S)NC(=O)/C=C/c2cccs2)cc1, CCCCc1ccc(NC(=O)C2CCCO2)cc1 (configuration not stated), O=C(/C=C/c1ccc(Br)cc1)NCc1cccs1, CNc1nnc(-c2cc3cc(Cl)ccc3oc2=O)s1, COc1ccc(OC)c(S(=O)(=O)Nc2cc(OC)c(Cl)cc2OC)c1, CCCCCCCCN1C(=O)[C@H](CC(=O)NCC23CC4CC(CC(C4)C2)C3)C[C@@]2(C(=O)OC)CC(C)(C)CC=C12, Cc1onc(-c2ccccc2)c1C(=O)Nc1sc2c(c1C#N)CCC2, Cn1c(SCC(=O)N2CCN(S(=O)(=O)c3ccccc3)CC2)nc2ccccc21, Cc1ccc(C)c(S(=O)(=O)Nc2ccc3oc(C)c(C(=O)O)c3c2)c1
